# Test results reported in the supplement of paper PMC7238544.
# Counter-ions that a name gives are not always drawn. ± gives the standard deviation of the averaged measurements. This is one part of the list.
# Experiments:
# Conditions in all cases: priming compound concentration 100 µM
# hAMSC donor 1 [1] = assay: Hoechst total cell count ratio vs vehicle control; higher = more cells (less toxicity)
# hAMSC donor 2 [2] = assay: as above
# hAMSC donor 1 [3] = assay: transgenic luciferase activity (RLU/mg protein) fold change vs vehicle control (ratio); higher = more transgene expression
# hAMSC donor 2 [4] = assay: as above
# hAMSC donor 1 [5] = assay: transfection efficiency (EGFP+ cells / Hoechst count) fold change vs vehicle control (ratio); hAMSC are human adipose-derived mesenchymal stem cells given an EGFP-luciferase plasmid by lipofection; higher = enhanced transfection
# hAMSC donor 2 [6] = assay: as above
# 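Throughout, for Hoechst total cell count ratio vs vehicle control: compound added 30 min before Lipofectamine 3000 lipoplex delivery, triplicate-well means expressed against DMSO vehicle control wells of the same 96-well plate.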
# 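Throughout, for transfection efficiency (EGFP+ cells / Hoechst count) fold change vs vehicle control: compounds added 30 min before Lipofectamine 3000 lipoplex transfection, triplicate means relative to DMSO vehicle wells on the same plate, luciferase RLU normalized to BCA total protein.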
# 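Throughout, for transgenic luciferase activity (RLU/mg protein) fold change vs vehicle control: compounds in DMSO added 30 min before Lipofectamine 3000 transfection of pEGFP-Luc in 96-well plates, values are means of triplicate wells over DMSO vehicle wells on the same plate.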
Compound,Hoechst total cell count ratio (hAMSC donor 1 [1]),Hoechst total cell count ratio (hAMSC donor 2 [2]),transgenic luciferase activity (hAMSC donor 1 [3]),transgenic luciferase activity (hAMSC donor 2 [4]),transfection efficiency (hAMSC donor 1 [5]),transfection efficiency (hAMSC donor 2 [6])
Cc1ncc([N+](=O)[O-])n1CC(C)O (centres undefined) [Secnidazole],1.22 ± 0.083,1.48 ± 0.3,0.895 ± 0.22,0.402 ± 0.064,0.706 ± 0.13,0.946 ± 0.074
CC(COc1ccccc1)N(CCCl)Cc1ccccc1 (centres undefined) [Phenoxybenzamine hydrochloride],1.51 ± 0.057,0.988 ± 0.063,2.31 ± 0.44,1.09 ± 0.16,0.818 ± 0.2,1.56 ± 0.25
CCC(C)n1ncn(-c2ccc(N3CCN(c4ccc(OCC5COC(Cn6cncn6)(c6ccc(Cl)cc6Cl)O5)cc4)CC3)cc2)c1=O (centres undefined) [Itraconazole],0.66 ± 0.099,0.603 ± 0.05,0.106 ± 0.086,0.967 ± 0.63,1.88 ± 0.49,1.51 ± 0.19
Clc1ccccc1C(c1ccccc1)(c1ccccc1)n1ccnc1 [Clotrimazole],0.311 ± 0.17,0.25 ± 0.053,0.365 ± 0.45,0.229 ± 0.19,0.26 ± 0.26,0.268 ± 0.17
O=c1ncc(F)c[nH]1 [5-Fluoro-2-pyrimidone],1.27 ± 0.036,1.17 ± 0.19,0.368 ± 0.11,0.564 ± 0.077,0.902 ± 0.26,1.03 ± 0.063
c1ccc(-c2ccc(C(c3ccccc3)n3ccnc3)cc2)cc1 (centres undefined) [Bifonazole],0.603 ± 0.11,0.627 ± 0.15,0.205 ± 0.18,1.45 ± 0.28,0.735 ± 0.05,1.17 ± 0.22
CCCNC(C)C(=O)Nc1ccccc1C (centres undefined) [Prilocaine hydrochloride],1.23 ± 0.091,1.33 ± 0.17,1.61 ± 0.31,1.26 ± 0.096,1.43 ± 0.35,1.04 ± 0.17
CC(=O)O[C@@]12CO[C@@H]1C[C@H](O)[C@@]1(C)C(=O)[C@H](O)C3=C(C)[C@@H](OC(=O)[C@H](O)[C@@H](NC(=O)OC(C)(C)C)c4ccccc4)C[C@@](O)([C@@H](OC(=O)c4ccccc4)[C@H]21)C3(C)C [Docetaxel],0.512 ± 0.051,0.53 ± 0.19,1.42 ± 0.39,0.298 ± 0.011,2.66 ± 0.23,0.617 ± 0.24
CC(=O)[C@@]1(O)CC[C@H]2[C@@H]3C[C@H](C)C4=CC(=O)C=C[C@]4(C)[C@@]3(F)[C@@H](O)C[C@@]21C [Fluorometholone],1.19 ± 0.046,0.989 ± 0.12,12.8 ± 11,6.27 ± 1.2,3.57 ± 0.42,2.91 ± 0.34
Cc1ccccc1C(OCCN(C)C)c1ccccc1 (centres undefined) [Orphenadrine hydrochloride],1.24 ± 0.15,1.39 ± 0.15,0.382 ± 0.15,0.718 ± 0.054,0.786 ± 0.29,0.637 ± 0.083
COc1c(N2CCNC(C)C2)c(F)cc2c(=O)c(C(=O)O)cn(C3CC3)c12 (centres undefined) [Gatifloxacin],1.2 ± 0.086,1.56 ± 0.13,2.09 ± 0.19,0.996 ± 0.25,1.2 ± 0.42,0.734 ± 0.09
CC(C)(C)NC[C@H](O)COc1nsnc1N1CCOCC1 [S(-)-Timolol maleate],1.46 ± 0.062,1.31 ± 0.13,0.825 ± 0.13,1.17 ± 0.33,1.12 ± 0.18,1.03 ± 0.2
Nc1nc2ccc(OC(F)(F)F)cc2s1 [Riluzole hydrochloride],1.19 ± 0.047,1.72 ± 0.19,0.517 ± 0.14,1.33 ± 0.21,1.24 ± 0.078,0.96 ± 0.21
Cc1cccc(C)c1NC(=O)C1CCCCN1C (centres undefined) [Mepivacaine hydrochloride],1.32 ± 0.11,1.6 ± 0.47,0.664 ± 0.65,0.866 ± 0.23,0.957 ± 0.19,1.21 ± 0.65
O=C1Nc2ccccc2/C1=C1/Nc2ccccc2C1=O [Indirubin],2.04 ± 0.13,0.953 ± 0.17,1.84 ± 0.33,1.75 ± 0.71,1.1 ± 0.22,1.4 ± 0.35
CCc1nn(CCCN2CCN(c3cccc(Cl)c3)CC2)c(=O)n1CCOc1ccccc1 [Nefazodone hydrochloride],1.23 ± 0.24,0.832 ± 0.34,0.626 ± 0.35,0.994 ± 0.41,0.564 ± 0.1,1.03 ± 0.51
Oc1ccc(C2CNCCc3c2cc(O)c(O)c3Cl)cc1 (centres undefined) [Fenoldopam mesylate],1.74 ± 0.22,1.13 ± 0.11,1.19 ± 0.15,0.957 ± 0.23,0.899 ± 0.25,0.418 ± 0.074
Nc1nc(F)nc2c1ncn2[C@@H]1O[C@H](CO)[C@@H](O)[C@@H]1O [Fludarabine],1.35 ± 0.066,1.19 ± 0.23,1.65 ± 0.42,0.758 ± 0.11,0.808 ± 0.091,1.26 ± 0.19
CC(C)NCC(O)COc1cccc2[nH]ccc12 (centres undefined) [Pindolol],1.07 ± 0.21,1.34 ± 0.47,0.654 ± 0.031,1.14 ± 0.32,1.27 ± 0.53,1.04 ± 0.34
C[C@H](CS)C(=O)N1CCC[C@H]1C(=O)O [Captopril],1.27 ± 0.19,1.66 ± 0.28,0.862 ± 0.68,0.725 ± 0.11,0.9 ± 0.13,0.758 ± 0.18
NCCc1ccc(O)c(O)c1 [Dopamine hydrochloride],1.2 ± 0.061,1.11 ± 0.059,0.411 ± 0.057,0.706 ± 0.16,0.636 ± 0.22,0.757 ± 0.077
CC(C)NCC(O)c1ccc(NS(C)(=O)=O)cc1 (centres undefined) [Sotalol hydrochloride],1.27 ± 0.034,1.48 ± 0.42,0.404 ± 0.042,1.16 ± 0.48,0.61 ± 0.16,1.22 ± 0.013
CC(C)(C)NCC(O)c1ccc(O)c(CO)c1 (centres undefined) [Salbutamol sulfate],1.22 ± 0.14,1.05 ± 0.12,0.748 ± 0.22,1.01 ± 0.31,1.08 ± 0.082,0.917 ± 0.14
CC#C[C@]1(O)CC[C@H]2[C@@H]3CCC4=CC(=O)CCC4=C3[C@@H](c3ccc(N(C)C)cc3)C[C@@]21C,0.828 ± 0.07,1.1 ± 0.23,1.83 ± 0.2,0.964 ± 0.48,1 ± 0.2,0.888 ± 0.17
